In all, about 33,000 sequences were measured (“E-score (-0.5 to 0.5)”: median about -0.035, highest 2% from about 0.35 on). The list shows a part of the results.
Target: T1, Pdr3 (UniProt P33200)
T1 sequence: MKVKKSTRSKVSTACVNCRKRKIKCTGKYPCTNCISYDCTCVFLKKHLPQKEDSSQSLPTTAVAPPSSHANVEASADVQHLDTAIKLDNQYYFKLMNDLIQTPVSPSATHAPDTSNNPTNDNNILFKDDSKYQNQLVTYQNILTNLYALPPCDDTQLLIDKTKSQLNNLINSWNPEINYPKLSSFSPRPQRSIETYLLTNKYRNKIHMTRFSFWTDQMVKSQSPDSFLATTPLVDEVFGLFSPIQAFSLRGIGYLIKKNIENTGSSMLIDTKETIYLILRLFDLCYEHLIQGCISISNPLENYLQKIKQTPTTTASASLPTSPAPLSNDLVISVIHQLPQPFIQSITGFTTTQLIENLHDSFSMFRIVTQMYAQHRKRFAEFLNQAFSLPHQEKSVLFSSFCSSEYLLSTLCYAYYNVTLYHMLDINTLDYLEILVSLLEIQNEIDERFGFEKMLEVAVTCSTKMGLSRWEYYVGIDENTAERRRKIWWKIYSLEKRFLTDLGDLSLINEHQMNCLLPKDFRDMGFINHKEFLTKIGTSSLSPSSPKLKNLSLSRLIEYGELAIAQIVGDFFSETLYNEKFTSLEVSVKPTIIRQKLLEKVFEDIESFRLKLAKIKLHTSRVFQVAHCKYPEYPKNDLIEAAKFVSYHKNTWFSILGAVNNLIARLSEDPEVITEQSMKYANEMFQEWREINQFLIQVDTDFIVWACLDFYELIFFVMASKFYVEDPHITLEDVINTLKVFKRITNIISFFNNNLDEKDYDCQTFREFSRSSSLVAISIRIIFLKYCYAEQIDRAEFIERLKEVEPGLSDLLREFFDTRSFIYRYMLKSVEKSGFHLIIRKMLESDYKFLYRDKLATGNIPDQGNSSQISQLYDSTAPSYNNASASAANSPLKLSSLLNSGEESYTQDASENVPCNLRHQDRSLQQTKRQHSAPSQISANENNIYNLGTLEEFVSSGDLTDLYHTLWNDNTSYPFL
Experiment: PBM E-score (8-mer binding enrichment) (E-score (-0.5 to 0.5)); higher = stronger / more preferred TF binding; most listed sequences are background and not binding sites
Settings: protein concentration: 200 nM; construct: GST-full length
How it was run: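 For each ungapped eight-base word taken together with its reverse complement, the Universal PBM Analysis Suite assigned an E-score. Binding data came from GST-tagged yeast transcription factors, applied at about 100-200 nM, on universal all-10-mer Agilent arrays made double-stranded by primer extension. Fluorescent anti-GST marked bound protein, and scans were normalised with masliner.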

Sequence	PBM E-score
ACAGAGAA	-0.0645
CGGCCGAC	0.315
CTAGGTGC	-0.121
ACTGGCGG	0.153
GTAAGTCA	-0.193
CGACCGGA	0.358
GTGGAAGA	-0.0507
ACTTCCCA	-0.0401
GCATCAAC	0.115
AAAATTTA	-0.0266
CCTGTAAG	-0.309
CGAAAAAG	0.159
ACGCCCGA	0.153
ACCAAAAG	-0.176
AATGCAGC	-0.144
GGGGCATA	0.0389
CCGGATAG	0.347
CCAGTAAA	-0.0539
AGTATTCA	-0.0479
TCATCCCA	-0.179
GACTCTAA	0.0119
ACCGAGTG	-0.0934
TCATAAGA	-0.0952
TACATCCA	-0.145
CGCGGTAC	0.367

Sequence	PBM E-score
AGGCTGCG	-0.0951
CCTGGGCC	-0.0401
TAATTTCA	0.109
ATGTTCTC	-0.205
CTACTTTC	-0.103
AGCCGGGA	0.3
ATGTCAGC	-0.0544
ACGGTTCT	-0.134
CGCGGCGA	0.374
AACGGACG	0.241
AGAGTGAT	-0.125
CTTTAACA	-0.129
GTTAATTA	0.0853
ATTCAAAA	0.0638
TGATGCCA	-0.158
CGGTTGTA	-0.15
CGGCGAAC	0.208
CCGCATTA	0.233
ATACCCTC	0.0772
AGTTATGA	-0.136
ATCGAGTA	-0.1
CTTTGTGC	-0.0216
TCCACTCA	-0.0727
GTGTGCGA	-0.0397
CGGTCGAC	0.26

Sequence	PBM E-score
GTTGAGGA	-0.109
AAAATAAA	0.0451
AAATATCA	0.0813
CCCGATAC	0.14
GTGCCAAA	-0.0342
AAGTTACC	0.0215
CTACGAAC	-0.167
CCGGCCCA	-0.0155
ATACAGAT	-0.00935
ACTAGTCA	-0.271
CTCGCATA	-0.179
AAGGGTTG	-0.182
CCAATAGG	-0.154
ATGGTCTA	-0.193
CTATTAGA	-0.258
GAAACGTC	-0.00886
TCTGAACA	-0.0452
CCTGCTTA	-0.18
CTGCTGTA	-0.218
GAGATGTA	-0.0787
GAAGAAGA	-0.0261
AAACTGCT	-0.188
CGGGGTGC	0.221
AAACTGTC	-0.121
ATCCCCTC	-0.151

Sequence	PBM E-score
CGTACGAA	-0.0596
CTTGTTAA	-0.0167
AACTGCCT	0.0192
GATTTTCC	0.175
AAACTGAC	-0.081
TCGGTCCA	-0.0553
GTACTGTA	-0.0989
ATGGCGAC	-0.0736
ACTAATAG	-0.0277
ACGAACTA	0.0052
CTCTTCAA	-0.188
CTACGGTA	0.0438
AAGCTCCG	0.341
AGCGAAGA	-0.201
AAACACAG	-0.0271
TCGTCAAA	-0.0356
CCCGTTAC	0.076
CAATCTCA	-0.135
AAACCAGT	-0.227
CGGCCGCA	0.323
AACTCCAT	0.0398
GCGGTTCC	0.293
AAACGCGT	0.0229
GCAGCCAC	0.0849
ATACTCCA	-0.0793

Sequence	PBM E-score
CCCGGTTA	0.115
ACCCTGTG	-0.111
CGAACTCA	0.0257
GCACGACA	-0.208
TCGAGAGA	-0.112
ACGGAATC	0.465
AAAAGTCG	0.0902
GTGATTAA	-0.0262
GATTCTAC	0.0673
CTACCTAG	-0.311
AAGGTAAT	0.02
CGAGGGAC	-0.18
AACTGGCG	0.115
AATATTTC	0.0855
AGTTTGCG	0.104
TAGGAGCA	-0.304
CTGCCCTA	-0.0448
AAGAATGG	0.0896
CGATCGTA	-0.0413
GATGTCGA	0.0591
CTAAGCCC	-0.0716
GCCTGAGA	-0.0349
AAGAACTC	-0.0426
ATGTCATG	-0.0275
GCAAGCAC	-0.347

Sequence	PBM E-score
TATACACA	-0.176
CGAGACCA	0.00775
CGTCACAA	-0.023
ATTCGTAA	-0.105
ATCATGTA	-0.246
GATACCGC	0.23
CAGTTAGA	-0.171
CTACAAGC	-0.0653
GGTAGCGA	0.0424
CTCGTTCC	0.268
ACAAAATG	-0.0212
ATACGCTG	0.00053
TCCTATCA	-0.175
ATTCTATA	-0.0384
CATGGGCG	0.158
CTAAGGTC	-0.232
GGACGAGA	0.119
AGATCCTG	-0.186
CAGTACCA	-0.219
GTTACGCA	-0.0849
CCGCATCA	0.179
CAGTGGAA	-0.109
CCTTAACC	-0.256
AATTGACG	-0.0255
CGGATACA	0.364

Sequence	PBM E-score
ACGATTAC	-0.187
GATTAGGC	-0.124
CATGGCCA	-0.192
CCAGAGCA	0.123
ATGATCGC	0.0432
CCCCTCTC	-0.179
AGCGGGAA	0.232
ATGACACA	-0.0379
CTTCCTCA	-0.175
AATTGATA	-0.0334
GCTCAGAC	-0.207
AACCCGTT	0.143
ACTCGAGT	0.0102
CACCCAGC	-0.0529
AGAATGAA	-0.0967
TAGTTGGA	-0.0882
TCGGCTAA	0.0364
AGACGGTA	-0.0491
GAAGCTCA	-0.0229
CGCCTCCC	-0.0886
AGGCAGCC	0.0506
AAAACGGG	0.319

Reference: the supplement of paper PMC3334620
